Measurements published in PubChem BioAssay AID720542 (National Center for Advancing Translational Sciences (NCATS), 2013).
Screen size: about 360,000 compounds; about 740 (0.21%) were called active. The shares of active, inactive and inconclusive entries below differ from those in the screen. The call rests on the fitted dose curve; in most records, active means well fitted inhibition curve with a large enough effect; inconclusive means small, poorly fitted or top-dose-only effect; inactive means no such curve, though single readings can be large or run the other way. Potencies of inconclusive entries are left out as doubtful fits.

Each molecule was assayed on Plasmodium falciparum AMA1 (3D7) - RON2 peptide interaction (assay: qHTS for Inhibitors of AMA1-RON; Towards Development of Antimalarial Drug Lead: Primary Screen). Conditions: AlphaScreen AMA1-biotinylated RON2 peptide binding; activity change, negative = inhibition: at 58.2 µM (top of the series) unless noted.
Outline: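 AMA1 (3D7) with his tag at 25 nM final met compounds first, then biotinylated RON2 peptide at 25 nM; detection used donor plus acceptor beads, 10 µg/mL apiece, read by AlphaScreen after 30 min at room temperature.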
Further: nearly all actives have a fitted effect of over 45% in size.
Potency means the concentration at half of the fitted maximal effect; tags describe the fitted curve by direction and shape.
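Wherever activity change, negative = inhibition is given: 0% = vehicle wells and -100% = peptide control.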

| Compound | Potency | activity change, negative = inhibition |
| --- | --- | --- |
| C/C=C/C=C\C(=O)Nc1cccc(C2=NOC3(C2)C[C@H](C(N)=O)N(C(=O)/C=C/C)C3)c1 (some centres not stated) | inconclusive [inhibitor, partial curve] | – |
| CS(=O)(=O)N1CCCC(C(=O)NCCc2ccccc2)C1 (configuration not stated) | inconclusive [inhibitor, single point] | – |
| Oc1ccccc1/C=N/NC(=S)NC1CC2CC1C1C=CCC21 (configuration not stated) | – | inactive: 40.9% |
| O=C(c1ccc(Cl)nc1)N1CCC(Cc2ccccc2)CC1 | inconclusive [inhibitor, partial curve] | – |
| CC1=NOC(=O)/C1=C\c1ccc(-c2cccc(Cl)c2)o1 | inconclusive [inhibitor, single point] | – |
| CCOC(=O)Cc1c(-c2cccc(Br)c2)nc2c3ccccc3ccn12 | – | inactive: -10% |
| CN(Cc1ccc(F)cc1)C(=O)CCc1nnc(-c2ccccc2)o1 | – | inactive: -0.0337% |
| CSCCC(NC(=O)c1ccc(Cl)cc1)C(=O)NC(C)(C)C (configuration not stated) | – | inactive: 6.24% |
| COc1ccc(N2CCN(C(=O)c3ccc4c(c3)CCN4S(=O)(=O)c3ccccc3)CC2)cc1 | inconclusive [inhibitor, single point] | – |
| COc1ccccc1-c1sc2cc3c(cc2c1-c1ccc(OCCN2CCOCC2)cc1)OCO3 | inconclusive [inhibitor, partial curve] | – |
| CCOC(=O)c1ccc(Nc2ncccc2[N+](=O)[O-])cc1 | inconclusive [inhibitor, full curve, poor fit] | – |
| C=CCn1c(SCCOc2ccc(OC)cc2)nnc1C(C)NC(=O)Cc1ccc(OC)cc1 (configuration not stated) | inconclusive [inhibitor, single point] | – |
| COc1cc(N=Nc2ccc3ccccc3c2)ccc1O | inconclusive [inhibitor, partial curve] | – |
| Cc1nc(N2CCN(c3ccccc3O)CC2)c2c(-c3ccccc3)csc2n1 | inconclusive [inhibitor, single point] | – |
| COc1cccc(/C=C2\SC(=S)N(N3CCOCC3)C2=O)c1OC | inconclusive [inhibitor, partial curve] | – |
| COc1ccccc1NC(=O)C1CC(=O)N(c2ccc(F)cc2)C1 (configuration not stated) | inconclusive [inhibitor, single point] | – |
| CCn1c(OC)nc2c1c(=O)n(C)c(=O)n2C | – | inactive: -3.5% |
| CC(=O)/C(=N\Nc1ccccc1Cl)Sc1cccc2cccnc12 | inconclusive [inhibitor, partial curve] | – |
| COc1ccc(-c2nc3ccccn3c2NCc2ccc3c(c2)OCO3)cc1 | inconclusive [inhibitor, single point] | – |
| CN(C)c1ccc(Nc2ncnc3ccc(Br)cc23)cc1 | inconclusive [inhibitor, partial curve] | – |
| O=[N+]([O-])c1ccc(C2CCCC/C2=N/OCc2ccc(F)cc2)c([N+](=O)[O-])c1 (configuration not stated) | inconclusive [inhibitor, partial curve] | – |
| O=C(NCc1ccncc1)C1COc2ccccc2O1 (configuration not stated) | – | inactive: 4.59% |
| CN(C)CCOc1ccc(Cl)cc1C(C)(C)C | inconclusive [inhibitor, partial curve] | – |

| Compound | Potency | activity change, negative = inhibition |
| --- | --- | --- |
| O=C(CCNc1ccc(F)cc1)c1cc2ccccc2o1 | inconclusive [inhibitor, single point] | – |
| Cc1ccc2c(c1)N(C(=O)CSc1nncn1C)C(C)(C)c1ssc(=S)c1-2 | inconclusive [inhibitor, single point] | – |
| O=[N+]([O-])c1cccn2cc(-c3ccc(Br)cc3)nc12 | inconclusive [inhibitor, partial curve, poor fit] | – |
| C[C@@H](c1ccccc1)N1C[C@@H](COCc2ccccc2)Oc2cc(N3CC[C@@H](N(C)C)C3)ccc2S1(=O)=O | inconclusive [inhibitor, partial curve] | – |
| COC(=O)C1=C(C(=O)OC)[C@@H]2N(C)c3ccc(OC)cc3[C@@]23C[C@@H](C(=O)OC)N(C(=O)COCc2ccccc2)C3=N1 | inconclusive [inhibitor, partial curve] | – |
| N#Cc1ccccc1S(=O)(=O)N1CCN(CC(O)CN2CCOCC2)CC1 (configuration not stated) | inconclusive [inhibitor, partial curve] | – |
| O=C(N/N=C/c1ccco1)C1CC1 | – | inactive: -11% |
| CCCCC(=O)N(C)c1c(C)nc2ccc(C(=O)N(C)CCN(C)C)cn12 | – | inactive: 23.1% |
| COc1cccc2c1C(=O)c1c(O)c3c(c(O)c1C2=O)CC(O)(C(C)=NO)CC3OC1CC(N)C(O)C(C)O1 (configuration not stated) | inconclusive [inhibitor, partial curve] | – |
| O=c1c2ccccc2nc(N/N=C/c2c(O)ccc3ccccc23)n1O | inconclusive [inhibitor, partial curve] | – |
| COc1ccc2sc(-c3ccccc3OC)c(-c3ccc(OCCN(C)C)cc3)c2c1 | inconclusive [inhibitor, single point] | – |
| CC1=CC(C)(C)N(C(=O)CNC2CCCC2)c2cc(C)ccc21 | inconclusive [inhibitor, single point] | – |
| C=CCN(CC=C)C(=O)C1CCN(Cc2ccc(OCc3ccccc3)cc2)CC1 | inconclusive [inhibitor, full curve, poor fit] | – |
| COc1ccc(C2Nc3ccccc3NC3=C2C(=O)CC(C)(C)C3)cc1 (configuration not stated) | – | inactive: 22.2% |
| CC(CCc1ccccc1)NCc1ccc(Cl)cc1Cl (configuration not stated) | inconclusive [inhibitor, single point] | – |
| CSc1ncnc2ncn(C)c12 | inconclusive [inhibitor, single point] | – |
| O=C(Nc1nnc(-c2ccccc2Cl)o1)c1ccc(S(=O)(=O)N2CCCCCC2)cc1 | inconclusive [inhibitor, single point] | – |
| CCc1nnc(NC(=O)CSc2sc3c(O)cc(=O)[nH]c3c2C#N)s1 | active: 10 µM | – |
| CCOC(=O)C1=NN(c2ccccc2)C2(S1)SC(C(C)=O)=C(C)N2c1ccccc1 (configuration not stated) | inconclusive [inhibitor, partial curve] | – |
| Cc1ccc(C(=O)NC(=S)/C=C2\N(C)c3ccccc3C2(C)C)cc1 | inconclusive [inhibitor, single point] | – |
| O=C(NC(c1ccc(F)cc1)c1ccc2ccccc2n1)C1CCN(CCOc2ccc(F)cc2)CC1 (configuration not stated) | inconclusive [inhibitor, partial curve] | – |
| COC(=O)c1ccc(C(=O)OC)c(NC(=S)N2CCCC(C)C2)c1 (configuration not stated) | inconclusive [inhibitor, partial curve] | – |
| CCc1cc(=O)oc2cc(C)c(CN3CCCC(C)C3)c(O)c12 (configuration not stated) | active: 18.9 µM | – |

| Compound | Potency | activity change, negative = inhibition |
| --- | --- | --- |
| Cc1cc(C)c2c(=O)c3c(oc2c1)C(=O)N(CCO)C3c1cccc(O)c1 (configuration not stated) | inconclusive [inhibitor, single point] | – |
| O=C(Nc1ccc(N2CCCC2)c(Cl)c1)c1ccc(Br)o1 | – | inactive: -18.6% |
| COc1ccc(N=Nc2cc(-c3ccccc3)ccc2O)cc1 | inconclusive [inhibitor, partial curve] | – |
| COc1cccc(-c2csc(Nc3ccc(Oc4ccccc4)cc3)n2)c1 | inconclusive [inhibitor, partial curve] | – |
| Cc1ccc(C)c(S(=O)(=O)N2CCN(CC(=O)NC(=O)NCc3ccccc3)CC2)c1 | inconclusive [inhibitor, single point] | – |
| O=C(c1ccco1)N1CCN(C(=O)c2ccc(-c3ccc([N+](=O)[O-])cc3)o2)CC1 | inconclusive [inhibitor, partial curve] | – |
| COc1ccc(-n2c(=O)c3c4c(sc3n3c(=S)[nH]nc23)CCCC4)cc1 | – | inactive: 21.6% |
| CCOC(=O)C(NC(=O)Cc1ccccc1)(Nc1cc(C)on1)C(F)(F)F (configuration not stated) | inconclusive [inhibitor, full curve] | – |
| c1cc2cc(CNc3nc(NCC4CC4)nc4ccsc34)ccc2o1 | inconclusive [inhibitor, single point] | – |
| CCOC(=O)C(C(=O)OCC)N(C#N)c1nc(SC)nc(N(C)C)n1 | inconclusive [inhibitor, full curve] | – |
| CC(C)(C#CCN1CCCCC1)OCCOC(c1ccccc1)c1ccccc1 | inconclusive [inhibitor, single point] | – |
| O=C(CCS(=O)(=O)c1ccc(Br)cc1)Nc1cc(F)ccc1F | – | inactive: -4.04% |
| CCCS(=O)(=O)c1c(S(=O)(=O)CCC)c2c(C)cccn2c1C(=O)OC | – | inactive: -5.73% |
| COc1ccc(N2CCN(C(=O)COc3cccc4ccccc34)CC2)cc1 | inconclusive [inhibitor, partial curve] | – |
| COc1ccc(OCc2nc(C#N)c(N3CCN(c4ccc(OC)cc4)CC3)o2)cc1 | inconclusive [inhibitor, full curve] | – |
| O=C(CN1C(=O)/C(=C2\SC(=S)N(C3CCS(=O)(=O)C3)C2=O)c2ccccc21)Nc1ccc(F)cc1 (configuration not stated) | – | inactive: 15.8% |
| Cc1cc(C)n2c(Nc3ccc4c(c3)OCCO4)c(CCc3ccccc3)nc2n1 | inconclusive [inhibitor, single point] | – |
| Cn1nccc1C(=O)OCC(=O)Nc1nc(-c2ccccc2)cs1 | – | inactive: -10.5% |
| Cc1nnc(SCc2ccccc2)nc1/C=C/NOCc1ccc(Cl)cc1Cl | inconclusive [inhibitor, partial curve] | – |
| Cc1ccc(Cl)cc1-c1ccc(C=Nc2ccc(N3CCOCC3)cc2)o1 | active: 11.2 µM | – |
| Cn1ccc2c(-c3ccc4c(c3)OCCO4)cc3c(c21)C1CCC3C1 (configuration not stated) | inconclusive [inhibitor, partial curve] | – |
